Measurements as given in ChEMBL document CHEMBL4888484, “Replenishing the malaria drug discovery pipeline: Screening and hit evaluation of the MMV Hit Generation Library 1 (HGL1) against asexual blood stage Plasmodium falciparum ,using a nano luciferase reporter read-out” (2022).
Screen size: about 150,000 compounds; about 540 (0.36%) showed an effect of 50% or more. The list shows a part of the results.

Each molecule was assayed on Plasmodium falciparum (assay: Primary screen in NF54 nanoGlo assay, in single point, at 2uM, 72h; a lower Z score goes with more inhibition). Details: timepoint 72 hour.
Assay type: functional, Erythrocyte

Structure (SMILES)	% Inhibition [%]	Z score
CC(C)[C@H](C)N(C(=O)NCc1ccncc1)C1CC1	-12	1.19
O=C(Cc1cccs1)NCc1ccsc1	3	-0.35
COCCn1cc(NC(=O)N(C)c2c(C)noc2C)cn1	10	-1.4
Cc1csc(C)c1S(=O)(=O)Nc1c2c(nn1C)CCCC2	7	-0.96
O=c1[nH]c2ccc(-c3csc(N4CCCCC4)n3)cc2[nH]1	33	-3.69
Cc1cc(N2CCC[C@H](CNC(=O)CN3CCOCC3)C2)nc2cc(F)ccc12	-15	1.9
CN1C[C@@H](NC(=O)N(CC2CCC2)CC2CC2)CC1=O	26	-3.69
CC(C)CCN1C(=O)CC[C@@H]2CN(C(=O)c3ccn(C)c(=O)c3)CC[C@@H]21	-2	0.29
CN(C)C1CCC2C(C1)OCCN2c1ncc(Br)cn1 (stereo not drawn)	-11	2
N[C@H]1C[C@@H](c2nc(-c3ccn(-c4ccccc4)n3)no2)[C@@H]2C[C@@H]21	2	-0.32
O=C([C@@H]1CCOc2ccc(Cl)cc21)N1Cc2cccc(Cl)c2C1	-15	1.28
Cc1cc(S(=O)(=O)N2CCNC(=O)C[C@H]2c2ccccc2)c(C)o1	-3	0.46
Cc1nc(C(=O)NCc2nc(N(C)C)no2)no1	7	-0.6
Cc1ccc(NC(=O)Cn2cnc3c(-c4ccncc4)nsc3c2=O)c(C)c1	-3	0.56
O=C(O)c1noc(Cc2ccc(Cl)cc2)n1	4	-0.42
Cc1cnn(CC(=O)N2CCOc3c(O)cc(-c4cccnc4)cc3C2)c1	-18	2.06
O=C(NC1CCN(Cn2nc3ccccn3c2=O)CC1)C1CCC1	3	-0.34
O=C(N[C@H]1CC[C@@H](CO)C1)c1ccc(C(F)(F)F)cc1Cl	-3	0.61
O=C(COc1ccc2c(c1)OCO2)Nc1cccc(S(=O)(=O)N2CCCC2)c1	-11	1.55
COc1ncccc1C(=O)NCC(F)(F)F	-29	3.28
CCCc1cnc(N2C[C@H]3CC[C@@H](C2)[C@@H]3N)nc1	-10	1.92
CCCN(CC(=O)O)c1nnc(-c2ccccc2)s1	1	-0.12
CCOc1cccc(CN2CCC3(CCC(=O)N(Cc4cccnc4)C3)CC2)c1	-9	1.07
CC1(C)C[C@@H]2C[C@@](C)(CN2Cc2cc3n(n2)CCCNC3)C1	-3	0.52
